The record followed here is article PMC7819943, “Rice protein-binding microarrays: a tool to detect cis-acting elements near promoter regions in rice”.

The other results are listed elsewhere or left out.

The target in this experiment is T1, OsWOX13 (Oryza sativa, UniProt Q5QMM3 1-267).
T1 sequence: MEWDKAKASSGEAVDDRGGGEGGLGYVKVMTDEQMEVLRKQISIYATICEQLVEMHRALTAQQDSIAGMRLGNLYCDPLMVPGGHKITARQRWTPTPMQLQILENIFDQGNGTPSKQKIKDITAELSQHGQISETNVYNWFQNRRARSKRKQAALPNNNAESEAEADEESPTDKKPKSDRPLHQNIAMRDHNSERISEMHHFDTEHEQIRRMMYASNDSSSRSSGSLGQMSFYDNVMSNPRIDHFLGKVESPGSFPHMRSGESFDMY
Briefly: protein-binding microarray (RPBM); PBS, 2% BSA, 51.3 ng/ul salmon testes DNA, 50 uM zinc acetate, 200 nM TF, 25 C, 1 h; high values mean tight binding. The conditions noted are these: protein: recombinant; tags: N-terminal polyhistidine and DsRed monomer fusion (pET32a); label: CyDye5-dUTP incorporated in the synthesized complementary strand; 3' TTTTT single-stranded linker to array surface; dsDNA, one strand shown. Put shortly: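 A custom Agilent array was converted to double-stranded form by primer extension with Cy5-dUTP and blocked with 2% BSA. Protein at 200 nM in PBS with 2% BSA, salmon testes DNA and 50 µM zinc acetate was applied for 1 h at 25 °C, followed by washing. The proteins were polyhistidine–DsRed N-terminal fusions of transcription factors, expressed in E. coli BL21-CodonPlus and Ni–NTA-purified. The binding signal is per-feature fluorescence intensity (arbitrary units) from an Axon 4000B scanner.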
For “GTGCTGTGATTGGCCGCGCGGGATTTCCTGGGCGGGCGGGCGGAGTCACCTAGTGCAG”, the binding signal was 22600 fluorescence intensity (a.u.).

For the sequence “TTCTAGACTGAATTGCCACCTAAGCGCCACATCAGTGCCACGGAGTCACCTAGTGCAG”, the binding signal was 3780 fluorescence intensity (a.u.). For the sequence “AGGTTAATTTCTCTGAGCTCAGCAAACCATGTTCAGTTAACGGAGTCACCTAGTGCAG”, the binding signal was 6280 fluorescence intensity (a.u.). The figure for “GTTATCTCAATCGAGCCTAAATTATGGCCCGTCACGGATACGGAGTCACCTAGTGCAG” is 3520 fluorescence intensity (a.u.).

As for “GTTGCAGCTGATACAGACTTTGATTGAAGATAGAAGGCAACGGAGTCACCTAGTGCAG”, the binding signal is 18000 fluorescence intensity (a.u.). For the sequence “GGCTAATTGAGGCCATGCCTGTCGTGCAGGACCAGGGCAACGGAGTCACCTAGTGCAG”, the binding signal is 36600 fluorescence intensity (a.u.). Next, “AGAGTGTTATGTTTAATTGGCTTAGGCTTTATTTGTTCGACGGAGTCACCTAGTGCAG”: 4630 fluorescence intensity (a.u.). “GCTAGGCTTGGGCAAATTTGTAATTGCAATTAACCCCACGCGGAGTCACCTAGTGCAG”: the binding signal was 7260 fluorescence intensity (a.u.).

As to “GACTAATTTTAGTCTTAGGACTAAGGCTGTGTTTGGGAACCGGAGTCACCTAGTGCAG”, the binding signal was 8970 fluorescence intensity (a.u.). The figure for “CTGTATGTGATTTGAAACCAATGTTAAGTTTCAGCATATACGGAGTCACCTAGTGCAG” is 6230 fluorescence intensity (a.u.); for “CGTGATGAGTAAATGGGCTGGGTTTTGCATCTTCTTCGGCCGGAGTCACCTAGTGCAG” it is 28500 fluorescence intensity (a.u.). Next, “TAAATTAATAGTAAACCATCTCAATAGTATGTCTACATGGCGGAGTCACCTAGTGCAG”: 7750 fluorescence intensity (a.u.). Next, “GAGATTGACGAAGTCACCACAGGCGCCTCGAGCACACTCACGGAGTCACCTAGTGCAG”: 10800 fluorescence intensity (a.u.); “TTGATTTGTGGAAGATAGGAGACTATAAGTTAACTTGTTTCGGAGTCACCTAGTGCAG”: 26900 fluorescence intensity (a.u.).

For “ATAATCAATTATTAAGTGACCTAATTAATACTGCAACTTACGGAGTCACCTAGTGCAG”, the binding signal is 23000 fluorescence intensity (a.u.). With “TGTCTAATTGGTATCGTGAAGACTCTGAACCATTTCCATCCGGAGTCACCTAGTGCAG”, the binding signal is 35200 fluorescence intensity (a.u.). Next, “TCTTAATTGGTCAAACTAATCATACACGAACATACAATGGCGGAGTCACCTAGTGCAG”: 40900 fluorescence intensity (a.u.); “ACATTAATGTGATTTCCCATTTCTACCCTATAGTTCAACACGGAGTCACCTAGTGCAG”: 12800 fluorescence intensity (a.u.); “GCGTGATGTGCATTGATTACCATACATGCATGCCGACCAACGGAGTCACCTAGTGCAG”: 31400 fluorescence intensity (a.u.). The figure for “TTATGAAAATATATTTAATTATTGATTTGATGAAACTAATCGGAGTCACCTAGTGCAG” is 5790 fluorescence intensity (a.u.); for “TTCCTGTTTGATTTGAATGTTTACCCAATAAACTCCGGTACGGAGTCACCTAGTGCAG” it is 12200 fluorescence intensity (a.u.); for “GATAATTAAAAGGATCAGATGGACAGAGGGAGAGAGCCAACGGAGTCACCTAGTGCAG” it is 13200 fluorescence intensity (a.u.).

“GAAAATGACCAAATTATGAAAACATCCAGGCAATGGATCTCGGAGTCACCTAGTGCAG”: the binding signal is 3240 fluorescence intensity (a.u.).
